{
  "source": "PubChem BioAssay AID2147",
  "about": "(National Center for Advancing Translational Sciences (NCATS), 2009)",
  "note": "In all, about 230,000 compounds went through this assay and about 3,600 (1.6%) were called active. The inconclusive results got no clear call from the source; some entries with a clear call stand among them for comparison. Calls come from the whole dose curve; as a rule, active = well fitted inhibition curve with a large enough effect (not every such curve was filed as active); inconclusive = small, poorly fitted or top-dose-only effect, or another doubt; inactive = no such curve, though single readings can be large or run the other way. Where the call is inconclusive, the potency comes from a doubtful curve fit. Note: nearly all actives have a fitted effect of over 50% in size. Potency is the fitted concentration of half-maximal effect; tags give direction and shape of the fitted curve.",
  "data": [
    {"biological_target": "Lysine-specific demethylase 4E (Homo sapiens) (UniProt B2RXH2)", "sequence (B2RXH2 whole entry, looked up, the tested form may be a part)": "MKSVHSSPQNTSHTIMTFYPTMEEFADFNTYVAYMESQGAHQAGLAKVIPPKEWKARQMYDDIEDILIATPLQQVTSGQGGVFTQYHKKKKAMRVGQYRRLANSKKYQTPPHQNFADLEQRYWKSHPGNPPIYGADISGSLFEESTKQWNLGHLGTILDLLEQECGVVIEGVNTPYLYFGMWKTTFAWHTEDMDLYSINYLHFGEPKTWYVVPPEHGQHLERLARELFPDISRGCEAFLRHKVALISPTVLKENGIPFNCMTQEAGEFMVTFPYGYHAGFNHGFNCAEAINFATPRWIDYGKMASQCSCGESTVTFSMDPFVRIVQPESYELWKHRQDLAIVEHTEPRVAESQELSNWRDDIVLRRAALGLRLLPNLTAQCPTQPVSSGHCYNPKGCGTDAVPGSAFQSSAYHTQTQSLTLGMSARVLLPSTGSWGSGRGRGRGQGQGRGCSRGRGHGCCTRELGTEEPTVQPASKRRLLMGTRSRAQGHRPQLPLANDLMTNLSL", "assay": "qHTS Assay for Inhibitors of Human Jumonji Domain Containing 2E (JMJD2E)", "settings": "JMJD2E catalytic domain, FDH-coupled NADH fluorescence (FDH is formaldehyde dehydrogenase); series mostly up to 57.1 µM", "values": [
      {"smiles": "O=C(CSc1nc2ccccc2c(=O)[nH]1)c1ccc(O)cc1O", "Potency": "inconclusive: 39.8 µM [inhibitor, single point]"},
      {"smiles": "CCSC1=N/C(=C\\c2ccccc2)C(=O)N1", "Potency": "inconclusive: 39.8 µM [inhibitor, single point]"},
      {"smiles": "COc1ccccc1/C=C/C(=O)NCC(=O)N/N=C/c1cc(Br)ccc1OC", "Potency": "inconclusive: 28.2 µM [inhibitor, single point]"},
      {"smiles": "Cc1ccc2nsnc2c1NC(=O)c1cncc(Br)c1", "Potency": "inconclusive: 31.6 µM [inhibitor, single point]"},
      {"smiles": "CCN(C(=O)COC(=O)c1cc(-c2ccc(C)o2)nc2ccccc12)C1CCS(=O)(=O)C1", "note": "(stereo not given)", "Potency": "inconclusive: 28.2 µM [inhibitor, partial curve]"},
      {"smiles": "COC(=O)C1=C(C)NC2=C(C(=O)CC(C)(C)C2)C1c1ccsc1", "note": "(stereo not given)", "Potency": "inconclusive: 31.6 µM [inhibitor, partial curve]"},
      {"smiles": "COC(=O)c1ccccc1NC(=O)N1CCCC1", "Potency": "inconclusive: 28.2 µM [inhibitor, partial curve]"},
      {"smiles": "C=CCOC(=O)C1=C(C)NC(SCC(=O)OCC)=C(C#N)C1c1ccc(O)c(OC)c1", "note": "(stereo not given)", "Potency": "inactive"},
      {"smiles": "O=c1onc2cnc3ccccc3n12", "Potency": "inconclusive: 28.2 µM [inhibitor, partial curve]"},
      {"smiles": "COc1ccc2nc(N3CCOCC3)cc(C)c2c1", "Potency": "inconclusive: 28.2 µM [inhibitor, partial curve]"},
      {"smiles": "COC(=O)C(CC(C)C)NC(=O)c1ccc([N+](=O)[O-])c(C)c1", "note": "(stereo not given)", "Potency": "inactive"},
      {"smiles": "COc1ccc2c(c1)CCc1c(C(=O)N3CCCc4ccccc43)noc1-2", "Potency": "inactive"},
      {"smiles": "Cc1cc(C(=O)N2CCN(c3ccccn3)CC2)c(C)o1", "Potency": "inconclusive: 28.2 µM [inhibitor, partial curve]"},
      {"smiles": "O=C(Nc1nnc(C23CC4CC(CC(C4)C2)C3)s1)c1ccc(N2C(=O)CCC2=O)cc1", "Potency": "inactive"},
      {"smiles": "COc1nccnc1NS(=O)(=O)c1ccc(NC(=S)NC(=O)c2cccnc2)cc1", "Potency": "inactive"},
      {"smiles": "COc1ccc(-n2nc3cc(C)c(NC(=O)c4cccnc4)cc3n2)cc1", "Potency": "inconclusive: 25.1 µM [inhibitor, partial curve]"},
      {"smiles": "Cc1ccc(C2CC2c2n[nH]c(=S)n2-c2ccc(C)cc2)cc1", "note": "(stereo not given)", "Potency": "inactive"},
      {"smiles": "O=C(NCc1cccnc1)c1ccccc1NS(=O)(=O)c1ccc(F)cc1F", "Potency": "inconclusive: 35.5 µM [inhibitor, single point]"},
      {"smiles": "O=C(O)CCC(=O)N1CCN(c2nc(-c3ccccc3Cl)c3cc(Br)ccc3n2)CC1", "Potency": "inconclusive: 31.6 µM [inhibitor, partial curve]"},
      {"smiles": "Cc1ccc(S(=O)(=O)/C(C#N)=C/c2c(N3CCC(C(N)=O)CC3)nc3ccccn3c2=O)cc1", "Potency": "inactive"}
    ]}
  ]
}
